Source: PubChem BioAssay AID686978 (National Center for Advancing Translational Sciences (NCATS), 2013)
Where “and” joins values, the source holds several entries; their conditions need not be identical. Identical values can stand only once. About 64,000 (15%) of roughly 420,000 compounds were called active. The shares of active, inactive and inconclusive entries below differ from those in the screen. Calls come from the whole dose curve; as a rule, active = well fitted inhibition curve with a large enough effect; inconclusive = small, poorly fitted or top-dose-only effect; inactive = flat fitted curve, though single readings scatter. Where the call is inconclusive, the potency comes from a doubtful curve fit.
% is set by controls: 0 for no effect and ±100 for the full control effect; potency is the fitted concentration of half-maximal effect; tags give direction and shape of the fitted curve.

Assay: qHTS for Inhibitors of human tyrosyl-DNA phosphodiesterase 1 (TDP1): qHTS in cells in absence of CPT; note: nearly all actives have a fitted effect of over 55% in size
Conditions: DT40 Tdp1-/- hTDP1 cells, no CPT, ATP luminescence, 48 h; activity change, negative = growth inhibition: at 46.2 µM (top of the series) unless noted
Outline: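 Stably hTDP1-transfected Tdp1-null chicken DT40 cells were treated with library compounds minus camptothecin and grown for at least 48 hr at 37 °C, after which cellular ATP was quantified by luminescence.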
With `COCCNC(=O)CSc1ccc(-c2nc3ccccc3[nH]2)cn1` the “activity change, negative = growth inhibition” value was inactive: 8.02%. In the case of `O=C(Nc1nc(-c2cccs2)c(-c2ccccc2)s1)c1ccco1`, the Potency is reported as inconclusive: 29.1 µM [inhibitor, single point]. With `CN(C)c1ccc(-c2nnc(-c3ccccc3F)o2)cc1` the Potency was inconclusive: 29.1 µM [inhibitor, single point]. With `CCOC(=O)N1CCN(S(=O)(=O)c2ccc3c(c2)SC(C)C(=O)N3)CC1` (stereo unspecified) the Potency was active: 9.2 µM. With `CCCCCC(=O)Nc1ccc(S(=O)(=O)Nc2ccc(Cl)nn2)cc1` the “activity change, negative = growth inhibition” value was inactive: -0.978%. With `COc1cccc(CNC(=O)C2CCCN(c3ncnc4c3nc3n4CCCCC3)C2)c1` (stereo unspecified) the Potency was inconclusive: 20.6 µM [inhibitor, single point]. With `Cc1ccc(Cl)cc1NC(=O)N[C@@H](C)C(=O)O` the “activity change, negative = growth inhibition” value was inactive: -1.58%. In the case of `COc1ccc(-c2nc3scc(CCNS(=O)(=O)c4c(C)noc4C)n3n2)cc1OC`, the Potency is reported as inconclusive: 14.6 µM [inhibitor, partial curve]. For `c1cnc2c(c1)ncc1cscc12`, the Potency was inconclusive: 25.9 µM [inhibitor, partial curve]. With `CC(C)(C)Cc1nnc(NS(=O)(=O)c2ccccc2)s1` the “activity change, negative = growth inhibition” value was inactive: 0.123%. For `COc1ccc(OC)c(S(=O)(=O)Nc2cccc3ccc(O)cc23)c1`, the Potency was inconclusive: 29.1 µM [inhibitor, single point]. With `CC1(C2CCN(Cc3c[nH]c4ccccc34)CC2)NC(=O)N(CCN2CCOCC2)C1=O` (stereo unspecified) the “activity change, negative = growth inhibition” value was inactive: -23.5%. In the case of `COCc1c(C(=O)N/N=C(/C)c2ccc(OCc3ccccc3)cc2)nnn1-c1nonc1N`, the “activity change, negative = growth inhibition” value is reported as inactive: 32.6%. With `CC(=O)Nc1ccc2nc(SCCOc3ccc(C)cc3)sc2c1` the Potency was inconclusive: 18.4 µM [inhibitor, partial curve]. For `Cc1c(Br)c([N+](=O)[O-])nn1CC(=O)NCc1cccnc1`, the “activity change, negative = growth inhibition” value was inactive: -7.73%. In the case of `CC(=O)c1cccc(-n2nnnc2SCC(=O)Nc2ccccc2N2CCCCC2)c1`, the Potency is reported as active: 23.1 µM. With `CC1(c2ccccc2)NC(=O)N(CC(=O)Nc2cc(C(F)(F)F)ccc2N2CCCCC2)C1=O` (stereo unspecified) the Potency was inconclusive: 23.1 µM [inhibitor, single point]. With `CCc1ccc(/C=N/NC(=O)c2ccc(OC3CCCC3)cc2)s1` the Potency was inconclusive: 29.1 µM [inhibitor, single point]. With `COc1ccc(Nc2ncnc3scc(-c4ccc(F)cc4)c23)cc1` the Potency was inconclusive: 29.1 µM [inhibitor, single point]. For `O=c1c2ccccc2ncn1-c1ccc(Cl)cc1[N+](=O)[O-]`, the activity change, negative = growth inhibition was inconclusive: -34.7% [inhibitor]. With `CC1CCc2c(N3CCC(O)CC3)c(F)cc3c(=O)c(C(=O)O)cn1c23` (stereo unspecified) the Potency was inconclusive: 16.8 µM [inhibitor, single point] and inconclusive: 14.6 µM [inhibitor, partial curve].
